Among all 310,000 compounds or so, about 2,200 (0.71%) showed an effect of 50% or more. Effects have a minus sign here. The list shows a part of the results.

The target in the assay is human ether-à-go-go-related gene (hERG) potassium channel (human, UniProt Q12809). The assay can be described thus: primary screen, population patch clamp on CHO cells stably expressing hERG.
human ether-à-go-go-related gene (hERG) potassium channel, sequence (Q12809 whole entry, looked up): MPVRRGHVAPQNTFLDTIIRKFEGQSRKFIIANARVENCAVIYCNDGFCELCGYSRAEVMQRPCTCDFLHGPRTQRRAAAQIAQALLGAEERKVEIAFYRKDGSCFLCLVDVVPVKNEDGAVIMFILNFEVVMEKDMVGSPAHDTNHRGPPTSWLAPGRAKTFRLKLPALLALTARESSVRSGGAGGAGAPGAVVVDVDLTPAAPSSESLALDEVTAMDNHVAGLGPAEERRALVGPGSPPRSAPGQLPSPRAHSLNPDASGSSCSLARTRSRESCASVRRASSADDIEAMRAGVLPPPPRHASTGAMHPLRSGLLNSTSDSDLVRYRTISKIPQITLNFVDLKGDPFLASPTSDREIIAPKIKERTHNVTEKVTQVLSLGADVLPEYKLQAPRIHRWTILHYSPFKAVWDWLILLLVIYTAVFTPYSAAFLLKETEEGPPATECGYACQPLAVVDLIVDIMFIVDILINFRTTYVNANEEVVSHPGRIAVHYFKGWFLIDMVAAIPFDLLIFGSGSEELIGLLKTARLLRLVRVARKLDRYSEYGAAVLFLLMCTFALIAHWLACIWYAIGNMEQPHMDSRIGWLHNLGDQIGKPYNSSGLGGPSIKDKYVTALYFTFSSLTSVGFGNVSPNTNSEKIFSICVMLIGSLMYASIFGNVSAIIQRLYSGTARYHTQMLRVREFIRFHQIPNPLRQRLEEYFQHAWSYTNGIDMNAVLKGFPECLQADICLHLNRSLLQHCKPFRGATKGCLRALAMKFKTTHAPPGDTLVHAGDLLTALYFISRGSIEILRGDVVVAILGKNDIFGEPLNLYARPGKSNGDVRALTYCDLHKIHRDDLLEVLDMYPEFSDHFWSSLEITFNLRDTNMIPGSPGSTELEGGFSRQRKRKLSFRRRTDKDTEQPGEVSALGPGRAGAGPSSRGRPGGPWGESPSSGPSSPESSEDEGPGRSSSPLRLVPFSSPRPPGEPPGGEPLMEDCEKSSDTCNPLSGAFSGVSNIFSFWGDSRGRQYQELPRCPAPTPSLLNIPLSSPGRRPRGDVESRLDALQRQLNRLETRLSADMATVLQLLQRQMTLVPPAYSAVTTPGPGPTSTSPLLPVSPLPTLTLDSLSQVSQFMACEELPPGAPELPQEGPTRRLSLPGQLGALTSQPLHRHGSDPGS
With `CC(=O)Nc1ccc(S(=O)(=O)N2CCN(CCC#N)CC2)cc1`, the “hERG current change (%, negative = inhibition) at 1uM” value came to 12.7%.

With `CCn1cc(/C=C(\NC(=O)c2ccc(OC)c(OC)c2)C(=O)N2CCN(C)CC2)c2ccccc21`, the “hERG current change (%, negative = inhibition) at 1uM” value is 3.89%.

Turning to `COc1ccc(CCNC(=O)Cn2nnc(C(=O)Nc3cccc(C)c3C)c2N)cc1OC`, the “hERG current change (%, negative = inhibition) at 1uM” value is given as 12.2%.

Regarding `Clc1cccc(CNCCNCc2cccc(Cl)c2)c1`, the “hERG current change (%, negative = inhibition) at 1uM” value is -5.35%.

As to `Nc1nccnc1C(=O)OCC(=O)Nc1cccc(S(=O)(=O)N2CCCCC2)c1`, the “hERG current change (%, negative = inhibition) at 1uM” value is on record as 0.171%.

Consider `O=C(c1ccc([N+](=O)[O-])cc1)N1CCN(c2cccc3[nH]ccc23)CC1`, for which the “hERG current change (%, negative = inhibition) at 1uM” value is on record as -29.9%.

For `O=C(c1ccco1)N1CCN=C1SCc1c(F)cccc1Cl`, the “hERG current change (%, negative = inhibition) at 1uM” value is 6.94%.

For the compound `Fc1cccc(NC(=S)NCc2cccnc2)c1`, the “hERG current change (%, negative = inhibition) at 1uM” value is listed as 21.2%.

`COc1ccccc1C(=O)Nc1c(C(=O)N2CCN(C)CC2)oc2ccccc12`: the “hERG current change (%, negative = inhibition) at 1uM” value was determined as 9.81%.

`COc1ccccc1CN1CCNC(=O)C1CC(=O)N(C)CC1CCOCC1` (stereo not drawn): the “hERG current change (%, negative = inhibition) at 1uM” value was 16.6%.

On to `CN(C)c1ccc(Sc2nnc(NC(=O)Nc3ccc(Cl)cc3Cl)s2)cc1`, for which the “hERG current change (%, negative = inhibition) at 1uM” value was determined as 13.7%.

With `C/C(=N\N=C\c1ccc(N(C)C)cc1)c1cccc([N+](=O)[O-])c1`, the “hERG current change (%, negative = inhibition) at 1uM” value amounted to 10.7%.

On to `COc1ccccc1-n1c(CNCC2CCCO2)nc2ccccc2c1=O` (stereo not drawn), for which the “hERG current change (%, negative = inhibition) at 1uM” value came out at 1.27%.

Take `COc1ccccc1N(C)S(=O)(=O)c1ccc(C(=O)N(C)Cc2ccc(Cl)s2)cc1`: the “hERG current change (%, negative = inhibition) at 1uM” value is recorded as 6.69%.

Turning to `COc1ccc(Cl)cc1NS(=O)(=O)c1ccc(S(=O)(=O)N2CCCC2)cc1`, the “hERG current change (%, negative = inhibition) at 1uM” value was -7.39%.

Turning to `C[C@@H](O)c1nc2ccccc2n1N`, the “hERG current change (%, negative = inhibition) at 1uM” value was determined as 13.2%.

Regarding `CCCC(=O)Nc1cc(C)cn(Cc2c(F)cccc2Cl)c1=O`, the “hERG current change (%, negative = inhibition) at 1uM” value was 8.22%.

On to `CCCCc1cc(=O)oc2cc(C)cc(OCC(=O)N3CCC(C(=O)O)CC3)c12`, for which the “hERG current change (%, negative = inhibition) at 1uM” value amounted to 10.9%.

On to `O=[N+]([O-])c1cc(C(F)(F)F)cc([N+](=O)[O-])c1NCCN1CCNCC1`, for which the “hERG current change (%, negative = inhibition) at 1uM” value is listed as 8.98%.

Turning to `Cc1csc(NC(=O)C2=COCCO2)n1`, the “hERG current change (%, negative = inhibition) at 1uM” value was 9.22%.

Take `CC(=O)c1nc(-c2ccccc2)sc1C`: the “hERG current change (%, negative = inhibition) at 1uM” value came out at 13.1%.

As to `Cc1c(C(=O)Cc2ccccc2)n(C)c2ccccc12`, the “hERG current change (%, negative = inhibition) at 1uM” value stood at 13.1%.

Regarding `O=C(Nc1ccc(Cl)cc1F)C1CC1c1ccccc1` (stereo not drawn), the “hERG current change (%, negative = inhibition) at 1uM” value was determined as 15.7%.

For the compound `CC(=O)Nc1ccc(NS(=O)(=O)c2cc([N+](=O)[O-])ccc2C)cc1`, the “hERG current change (%, negative = inhibition) at 1uM” value turned out to be 7.46%.

Take `O=C(Nc1ccc(-c2nnco2)cc1)c1ccccc1`: the “hERG current change (%, negative = inhibition) at 1uM” value turned out to be 14.8%.

In the case of `Cc1ccc(NCc2ccccc2OCc2ccccc2F)cc1`, the “hERG current change (%, negative = inhibition) at 1uM” value is given as 14.7%.

Regarding `CCCCc1cc(=O)oc2cc(OCC(=O)Nc3cccnc3)c(Cl)cc12`, the “hERG current change (%, negative = inhibition) at 1uM” value was found to be 21.3%.

With `Cc1ccc2[nH]c(-c3cccc(N)c3)cc2c1`, the “hERG current change (%, negative = inhibition) at 1uM” value turned out to be 16.3%.

Consider `O=C(Nc1ccc(-c2cn3ccccc3n2)cc1)c1cccs1`, for which the “hERG current change (%, negative = inhibition) at 1uM” value was 4.17%.

As to `CCOc1cc(/C=N/NC(=O)c2ccccn2)ccc1OC(=O)c1cccs1`, the “hERG current change (%, negative = inhibition) at 1uM” value is 9.19%.

`COCCN(C(=O)CCC(=O)Nc1nccs1)C(C(=O)NCCC(C)C)c1ccc(OC)cc1` (stereo not drawn): the “hERG current change (%, negative = inhibition) at 1uM” value is on record as 15.2%.

For `Fc1ccc(-c2cc(C(F)(F)F)nc(-n3cc(Cl)cn3)n2)cc1`, the “hERG current change (%, negative = inhibition) at 1uM” value turned out to be 2.75%.

On to `O=C1c2oc3ccccc3c(=O)c2C(c2ccccn2)N1Cc1ccccc1` (stereo not drawn), for which the “hERG current change (%, negative = inhibition) at 1uM” value was determined as 8.83%.

Regarding `COc1cc(NC(=O)CSc2nc3[nH]c(=O)cc(O)c3s2)cc(OC)c1OC`, the “hERG current change (%, negative = inhibition) at 1uM” value is 14.1%.

Turning to `C[C@@H](Nc1nc(-c2ccccc2)nc2c1oc1ccccc12)C(=O)O`, the “hERG current change (%, negative = inhibition) at 1uM” value was 16.5%.

For the compound `CC(C)(C)NC(=O)C(c1ccccc1)N(Cc1cccs1)C(=O)c1csnn1` (stereo not drawn), the “hERG current change (%, negative = inhibition) at 1uM” value was determined as 9.67%.

Take `COc1ccc(Br)cc1S(=O)(=O)N1CCCc2ccccc21`: the “hERG current change (%, negative = inhibition) at 1uM” value turned out to be 9.51%.

As for `CCN1CCCC1CNC(=O)C(=O)NCc1ccccc1` (stereo not drawn), the “hERG current change (%, negative = inhibition) at 1uM” value is 3.56%.

Regarding `CCn1cc(S(=O)(=O)CC(=O)Nc2ccc(OC)cc2)c2ccccc21`, the “hERG current change (%, negative = inhibition) at 1uM” value is 9.04%.

Consider `CCOC(=O)c1c(N)n[nH]c1-c1ccc(OC)cc1`, for which the “hERG current change (%, negative = inhibition) at 1uM” value is recorded as -6.25%.

Take `CC(NC(=O)c1cccnc1)c1ccc2c(c1)OCO2` (stereo not drawn): the “hERG current change (%, negative = inhibition) at 1uM” value is recorded as -2.02%.

Turning to `COc1cc(OC)cc(C(=O)OCC(=O)Nc2sccc2C(N)=O)c1`, the “hERG current change (%, negative = inhibition) at 1uM” value was 5.65%.

Turning to `COc1ccc(C2(c3ccc(OC)cc3)NC(=O)N(CC(=O)Nc3ccc(C(=O)N(C)C)cc3)C2=O)cc1`, the “hERG current change (%, negative = inhibition) at 1uM” value stood at 3.26%.

Take `COc1ccc(-c2c(C#N)c(N)nc3c2CCCCCC3)cc1OC`: the “hERG current change (%, negative = inhibition) at 1uM” value is given as 13.6%.

As for `Cc1nc(N)[nH]c(=O)c1CC(=O)OCCCl`, the “hERG current change (%, negative = inhibition) at 1uM” value is listed as 8.61%.
